The record followed here is PubChem BioAssay AID360 (National Center for Advancing Translational Sciences (NCATS), 2006).

Each structure is given as a SMILES string. Hit rate of the full screen: of about 48,000 compounds, about 550 (1.1%) were called active. Inconclusive results (about 4%) are left out. No stated cut-off is given here; in the data, active means potency below about 15 µM; inconclusive means mostly about 16 µM to 33 µM; inactive means weaker than that. The list shows a part of the results. Bounds are passed on as bounds.
Potency means the concentration at half of the fitted maximal effect.

Sequence of UniProt P04062 (P04062 whole entry, looked up): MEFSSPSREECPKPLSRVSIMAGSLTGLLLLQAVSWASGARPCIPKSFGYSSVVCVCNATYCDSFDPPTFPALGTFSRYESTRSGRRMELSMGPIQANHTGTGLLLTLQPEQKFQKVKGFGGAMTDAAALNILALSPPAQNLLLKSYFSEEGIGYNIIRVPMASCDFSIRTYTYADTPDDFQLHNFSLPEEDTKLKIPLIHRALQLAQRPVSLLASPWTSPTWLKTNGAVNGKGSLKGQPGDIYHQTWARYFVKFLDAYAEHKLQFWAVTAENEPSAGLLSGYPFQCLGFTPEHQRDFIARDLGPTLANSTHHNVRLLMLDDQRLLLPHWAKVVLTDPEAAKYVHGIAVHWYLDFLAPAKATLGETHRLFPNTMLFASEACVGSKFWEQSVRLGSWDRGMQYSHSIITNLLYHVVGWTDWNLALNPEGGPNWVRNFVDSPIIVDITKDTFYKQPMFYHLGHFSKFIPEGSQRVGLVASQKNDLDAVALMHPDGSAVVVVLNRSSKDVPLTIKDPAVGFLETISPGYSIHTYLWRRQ

The assay deals with Lysosomal acid glucosylceramidase (Homo sapiens) (UniProt P04062). Put plainly: Glucocerebrosidase.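 Further: the screen sought inhibitors.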 The following applies: purified enzyme, resorufin glucoside fluorescence (screen aimed at inhibitors), 20 min. The method, boiled down:
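Normal human glucocerebrosidase (0.2 nM final) was assayed with resorufin β-D-glucopyranoside (30 uM final) in 50mM citric acid/KH2PO4, 10mM sodium taurocholate, 0.01% tween-20, pH 5.9. Compounds were titrated; fluorescence (Ex 548, Em 600) read after 20 min at RT.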
Turning to `CCC(C)(C)n1nnnc1C(c1ccc(OC)c(OC)c1)N1CCN(c2ccc(OC)cc2)CC1` (stereo not given), the Potency was inactive: > 76.9 µM.
For the compound `N#Cc1nc(-c2ccco2)oc1NCc1ccco1`, the Potency is inactive: > 76.9 µM.
Take `COCCOC(=O)c1c(C)n(C)c2ccc(OC(=O)c3cccs3)cc12`: the Potency is inactive: > 76.9 µM.
Consider `Cc1ccc(S(=O)(=O)NCCOCCNS(=O)(=O)c2ccc(C)cc2)cc1`, for which the Potency is inactive: > 76.9 µM.
With `COc1cccc(NC(=O)CC2(CC(=O)O)CCCC2)c1`, the Potency is inactive: > 76.9 µM.
As to `CCN(CC)CCCN1C(=O)C(=O)/C(=C(/O)c2c(C)nc3ccccn23)C1c1ccc(C)o1` (stereo not given), the Potency is inactive: > 76.9 µM.
With `CCC(c1nnc(SCCNCCO)n1CCN1CCOCC1)N(C)C` (stereo not given), the Potency is inactive: > 76.9 µM.
The result for `CC(C)OC(=O)CSc1nnc(-c2ccco2)n1N` reads inactive: > 76.9 µM.
Consider `CCOC(=O)CN1C(=O)C(O)(CC(=O)c2cccc(OC)c2)c2ccccc21` (stereo not given), for which the Potency is inactive: > 76.9 µM.
`O=C(Nc1ccc(F)cc1)c1cccnc1N1CCOCC1`: the Potency was inactive: > 76.9 µM.
For `Cc1ccc(S(=O)(=O)N2CCOCC2)cc1C(=O)N1C(=O)c2cccc(N)c2C1=O`, the Potency was inactive: > 76.9 µM.
Regarding `CCOc1cc(C(=O)N2CCOCC2)ccc1OCc1ccccc1`, the Potency is inactive: > 76.9 µM.
In the case of `CCn1c(CNc2ccc(OC)cc2)nnc1SCC(=O)N1CCCc2ccccc21`, the Potency was inactive: > 76.9 µM.
For `CC(=O)c1c(C)n(C)c2ccc(OC(=O)c3ccco3)cc12`, the Potency is inactive: > 76.9 µM.
Consider `O=C(c1cnn2c(C(F)(F)F)cc(-c3ccc4c(c3)OCO4)nc12)N1CCCC1`, for which the Potency was inactive: > 76.9 µM.
Regarding `COc1ccc(OC)c(NC(=O)CSc2nnnn2-c2ccccc2F)c1`, the Potency was inactive: > 76.9 µM.
For `N#Cc1sc2nc(-c3ccccc3)cc(-c3ccco3)c2c1N`, the Potency was inactive: > 76.9 µM.
With `CCn1c(SCC(=O)NCc2ccco2)nc2c(c1=O)SC(C)C2` (stereo not given), the Potency was inactive: > 76.9 µM.
In the case of `Cn1c(C(=O)N2CCN(C(=O)c3ccco3)CC2)cc2c(=O)n3ccccc3nc21`, the Potency was inactive: > 76.9 µM.
On to `CC1CCCN(C(=O)C2CCN(CCCc3ccccc3)CC2)C1` (stereo not given), for which the Potency is inactive: > 76.9 µM.
The same measure for `CCn1c(SCC(=O)OCc2ccccc2)nc2c1c(=O)n(C)c(=O)n2C`: inactive: > 76.9 µM; for `COC(=O)c1ccc(NC(=O)N2CCOCC2)cc1`: inactive: > 76.9 µM.
On to `Cc1nc(CCNC(=O)c2cccs2)cs1`, for which the Potency was inactive: > 76.9 µM.
Turning to `Cn1c(SCC(=O)N2CCOCC2)nc2sc3c(c2c1=O)CCCC3`, the Potency is inactive: > 76.9 µM.
`CCCn1c(=NC(=O)c2ccncc2)c(C(=O)OCC)cc2c(=O)n3cccc(C)c3nc21`: the Potency was inactive: > 76.9 µM.
